System: HBEGF locus
Format: cell-based, human
Details: high-throughput screen of dXR repression of the HBEGF gene; change in abundance of each domain in the library before and after diphtheria toxin selection

| Molecule | Log2 (fold change) |
| --- | --- |
| DOMAIN_5527 (protein, listed as Aotus trivirgatus) MNVEVLKVISQDLVTFKDVAIDFSQEEWQWMNPAQKRLYRSMMLENYQSLVSLGLCVSKPYVISLLEQGREPWEMTSEMTR | 3.1092 |
| DOMAIN_5782 (protein, listed as Homo sapiens) YQIPVSFKDVVVGFTQEEWHRLSPAQRALYRDVMLETYSNLVSVGYEGTKPDVILRLEQEEAPWIGEAACPGCHCWEDIWR | 2.9086 |
| DOMAIN_5774 (protein, listed as Homo sapiens) YQEMVTFEDVAVHFTKTEWTGLSPAQRALYRSVMLENFGNLTALGYPVPKPALISLLERGDMAWGLEAQDDPPAERTKNVC | 2.9608 |
| DOMAIN_5896 (protein, listed as Bos taurus) HQEVVTFEDVAVYFTRTEWAGLSPAQRALYRSVMLEIYRSLTSLGYPVPKPALISLLERGDLPVGLETQDNPPAQGTRDIY | 2.9429 |
| DOMAIN_5103 (protein, listed as Callithrix sp.) IREFGGMGAGIANIWSFQGSVTFRDVAIDFSQEEWKWLQPAQRDLYRCVMLENYGHLVSLGLSISKPDVVSLLEQGKEPWL | 2.1016 |
| DOMAIN_5485 (protein, listed as Aotus trivirgatus) REPAQVLVAAESLIDNEEGYVTFEDVAVYFSQEEWRLLDEAQRLLYRNVMLENFSLMASLGLASSKTHEITQLESWEEPFV | 2.7826 |
| DOMAIN_5370 (protein, listed as Aotus trivirgatus) TMTTVSSTARPQESVAFDDVAVYFTKKEWAIMVPDQRALYRDVMLENYEAVAFVVPPTSKPALVSHLEQGKEPCFTQPQGV | 3.0452 |
| DOMAIN_5299 (protein, listed as Aotus trivirgatus) GRSPRKTDQFCNSKNMVPGSVTFRDVAIDFSQEEWECLQPAQRTLYRDVMLENYSHLISLGSSISKPDVITLLEQEKEPWM | 2.7399 |
| DOMAIN_4687 (protein, listed as Callithrix sp.) MPGPPGSLEMDPLTFRDVAIEFSLEEWQCLDTAQQNLYRNVMLENYKNLAFLGIAVSKPDLITRLEKEKEPWKMKRHRMVD | 5.2288 |
| DOMAIN_5742 (protein, listed as Homo sapiens) CQELVTFEDVAVYFSLEEWERLEADQRGLYQEVMQENYGILVSLGYPIPKPDLIFRLEQGEEPWVPDSPRPEEGDIVTGVY | 2.8617 |
| DOMAIN_2942 (protein, listed as Hylobates sp.) MDSVAFEDVAVNFTQEEWALLDPSQKNLYREVMQETVRNLASIGKKWNNQYIEDEHQNPRKNLRRLIGERLSESKESHQHG | 3.3658 |
| DOMAIN_5096 (protein, listed as Callithrix sp.) MTMLQDSFSFDDLSVDFTQKEWQLLDPSQKNLYKDVMLENYSSLVSLGYEAMKPDVIFKLEQGEEPWIGDEEIPSSWSPDI | 2.456 |
| DOMAIN_5489 (protein, listed as Aotus trivirgatus) MAAAALREPAQGYVTFEDVAVYFSQEEWRLLDEAQRLLYRNVMLENFSLMASLGLASSKTHEITQLESWEEPFVPAWDVMT | 2.6774 |
| DOMAIN_5901 (protein, listed as Homo sapiens) SKAPITFGDLAIYFSQEEWEWLSPIQKDLYEDVMLENYRNLVSLGLSFRRPNVITLLEKGKAPWMVEPVRRRRAPDSGSKC | 3.2935 |
| DOMAIN_5273 (protein, listed as Aotus trivirgatus) MINYQTPVSFKDVVVGFTQEEWHRLNPTQRALYRDVMLETYSNLVSVGYEGTKPDVILRLEQEEAPWIGEAACLGCHCWED | 2.4023 |
| DOMAIN_5248 (protein, listed as Aotus trivirgatus) MAHRSVMFSDISIDFSPEEWEYLDLEQKDLYRDVMLENYSNLVSLGCFISKPDVISLLEQGKEPWKVVRKRRRQYPDLETK | 4.1052 |
| DOMAIN_5716 (protein, listed as Aotus trivirgatus) MDVAQEQVTFQDVAIYFSWEEWECLEPSQRALYRDVMLDNFSNVAALGFCSPRPDLVSRLEQWEEPWVEDRDRPELQAVQR | 3.0606 |
| DOMAIN_5217 (protein, listed as Aotus trivirgatus) MAHMAFRDVAVDFTQDEWRLLSPAQRTLYREVMLENYSNLVSLGISFSKPEIITQLEQGKETWREEKKCPPATCPADPEPE | 2.4689 |
| DOMAIN_5843 (protein, listed as Homo sapiens) VQEPVTFKDVAVDFTQEEWGQLDLVQRTLYRDVMLETYGHLLSVGNQIAKPEVISLLEQGEEPWSVEQACPQRTCPEWVRN | 3.1821 |
| DOMAIN_5822 (protein, listed as Homo sapiens) AQESVTFEDVAVNFTNREWQCLTYAQRHLYKDVMLENYGNMVSLGFPFPKPPLISHLEREVDPCVQDPQDRESLSCSYPVS | 2.9335 |
| DOMAIN_5246 (protein, listed as Aotus trivirgatus) MAQESVMFSDVSIDFSQEEWECLNDDQRDLYRDVMLENYSNLVSMAGHSISKPNVISYLEQGKEPWLVDRELTRGQWPALE | 2.7473 |
| DOMAIN_5792 (protein, listed as Homo sapiens) EMGLLTFRDIAIEFSLEEWQCLDCAQRNLYRDVMLENYRNLVSLGIAVSKPDLITCLEQNKESQNIKRNEMVAKHPVTRSH | 3.0218 |
| DOMAIN_5866 (protein, listed as Homo sapiens) SQASVSFKDVTIEFTQEEWQQMAPVQKNLYRDVMLENYSNLVSVGYCCFKPEVIFKLEQGEEPWFSEEEFSNQSHPKDYRG | 2.6362 |
| DOMAIN_5337 (protein, listed as Aotus trivirgatus) CGMFQVSVAFEDVAVTFTQEEWALLDPSQKTLYRDVMQENFRNLASVGKKWKAQNIYVEYKNLRRNLRNLRGKRLFESKED | 3.7616 |
| DOMAIN_5235 (protein, listed as Aotus trivirgatus) MNMEGLVMFQDLSIDFSQEEWECLNPTQKDLYRDVMMENYSSLLSLGLSIPKPDVISLLEQGKEPWMVSRDVLGGWCPDRL | 3.437 |
| DOMAIN_5765 (protein, listed as Rattus norvegicus) SKAPVTFGDLAIYFSQEEWEWLSPNQKDLYEDVMLENYHNLVSVGLACRRPNIIALLEKGKAPWMVEPSRKRRGPELGSKD | 4.2973 |
| DOMAIN_5518 (protein, listed as Aotus trivirgatus) MATALTDPAQVSVTFDDVAVTFTQEEWGQLDLAQRTLYQEVMLENCGLLVSLGCPVPRPELIYHLEHGQEPWTRKEDLSQG | 2.8542 |
| DOMAIN_5201 (protein, listed as Aotus trivirgatus) MHLTAWPQKSVTFEDVAVYFTQAEWDGLSPAQRTLYRDVMLENYGNVASLGFPLLKPAVISQLEGGGELGGPSPLAAGTGL | 3.3658 |

— patent publication US12551573B2, “Compositions and methods for the targeting of PCSK9” (Scribe Therapeutics Inc., priority 2022, dated 2026)
